From patent US11000038B2, “Pyridone compounds and agricultural and horticultural fungicides containing the same as active ingredients” (priority 2017, dated 2021)

Key:
[1] = system: tomato late blight fungi (Phytophthora infestans); format: in vivo; conditions: tomato late blight, spray treatment
[2] = system: rice blast fungi (Magnaporthe grisea); format: in vivo; conditions: rice blast, spray treatment
[3] = system: cucumber anthracnose fungi (Colletotrichum orbiculare); assay: Test Example H: cucumber anthracnose, spray treatment of cucumber plants; conditions: cucumber anthracnose, 250 ppm spray, 6 to 10 days after inoculation

SMILES | Test F control value [1] | Test A control value [2] | Test H control value [3]
Cc1c(F)cccc1-n1cc(C)c(=O)c(C)c1-c1c(F)cccc1F [Compound 479] | L (L shows the control value of 50% or less) | H (H shows the control value of more than 50%) | H (H shows the control value of more than 50%)
Cc1c(Br)cccc1-n1cc(C)c(=O)c(C)c1-c1c(F)cc(F)cc1F [Compound 480] | L (L shows the control value of 50% or less) | H (H shows the control value of more than 50%) | H (H shows the control value of more than 50%)
COc1cccc(-n2cc(C)c(=O)c(C)c2-c2c(F)cc(F)cc2F)c1C [Compound 481] | H (H shows the control value of more than 50%) | H (H shows the control value of more than 50%) | H (H shows the control value of more than 50%)
Cc1cccc(-n2cc(C)c(=O)c(C)c2-c2ccccc2)c1C [Compound 482] | L (L shows the control value of 50% or less) | L (L shows the control value of 50% or less) | H (H shows the control value of more than 50%)
Cc1c(F)cccc1-n1cc(C)c(=O)c(C)c1-c1ccccc1 [Compound 483] | L (L shows the control value of 50% or less) | L (L shows the control value of 50% or less) | H (H shows the control value of more than 50%)
Cc1c(Cl)cccc1-n1cc(C)c(=O)c(C)c1-c1ccccc1 [Compound 484] | L (L shows the control value of 50% or less) | L (L shows the control value of 50% or less) | H (H shows the control value of more than 50%)
CCc1ccccc1-n1cc(C)c(=O)c(C)c1-c1c(F)cccc1F [Compound 485] | L (L shows the control value of 50% or less) | H (H shows the control value of more than 50%) | H (H shows the control value of more than 50%)
Cc1ccc(Cl)cc1-n1cc(C)c(=O)c(C)c1-c1c(F)cccc1F [Compound 486] | L (L shows the control value of 50% or less) | L (L shows the control value of 50% or less) | L (L shows the control value of 50% or less)
Cc1ccc(Br)cc1-n1cc(C)c(=O)c(C)c1-c1c(F)cccc1F [Compound 487] | L (L shows the control value of 50% or less) | H (H shows the control value of more than 50%) | L (L shows the control value of 50% or less)
CCc1ccccc1-n1cc(Br)c(=O)c(CC)c1-c1c(F)cc(F)cc1F [Compound 488] | L (L shows the control value of 50% or less) | H (H shows the control value of more than 50%) | H (H shows the control value of more than 50%)
CCc1ccccc1-n1cc(C)c(=O)c(CC)c1-c1c(F)cc(F)cc1F [Compound 489] | H (H shows the control value of more than 50%) | H (H shows the control value of more than 50%) | H (H shows the control value of more than 50%)
CCc1c(-c2c(F)cc(F)cc2F)n(-c2ccccc2Cl)cc(Br)c1=O [Compound 490] | H (H shows the control value of more than 50%) | H (H shows the control value of more than 50%) | H (H shows the control value of more than 50%)
CCc1c(-c2c(F)cc(F)cc2F)n(-c2ccccc2Cl)cc(C)c1=O [Compound 491] | L (L shows the control value of 50% or less) | H (H shows the control value of more than 50%) | H (H shows the control value of more than 50%)
CCc1c(-c2c(F)cc(F)cc2F)n(-c2ccccc2)cc(Br)c1=O [Compound 492] | L (L shows the control value of 50% or less) | H (H shows the control value of more than 50%) | H (H shows the control value of more than 50%)
CCc1c(-c2c(F)cc(F)cc2F)n(-c2ccccc2)cc(C)c1=O [Compound 493] | L (L shows the control value of 50% or less) | H (H shows the control value of more than 50%) | H (H shows the control value of more than 50%)
Cc1c(Cl)cccc1-n1cc(C)c(=O)c(C)c1-c1c(F)cccc1F [Compound 494] | L (L shows the control value of 50% or less) | H (H shows the control value of more than 50%) | H (H shows the control value of more than 50%)
CCc1c(-c2c(F)cccc2F)n(-c2cccc(C)c2C)cc(Br)c1=O [Compound 495] | L (L shows the control value of 50% or less) | L (L shows the control value of 50% or less) | L (L shows the control value of 50% or less)

SMILES | Test F control value [1] | Test A control value [2] | Test H control value [3]
Cc1c(Br)cccc1-n1cc(C)c(=O)c(C)c1-c1c(F)cccc1F [Compound 496] | L (L shows the control value of 50% or less) | H (H shows the control value of more than 50%) | L (L shows the control value of 50% or less)
CCc1c(-c2c(F)cccc2F)n(-c2cccc(C)c2C)cc(C)c1=O [Compound 497] | L (L shows the control value of 50% or less) | H (H shows the control value of more than 50%) | L (L shows the control value of 50% or less)
CCc1ccccc1-n1cc(Br)c(=O)c(CC)c1-c1ccccc1 [Compound 498] | L (L shows the control value of 50% or less) | H (H shows the control value of more than 50%) | L (L shows the control value of 50% or less)
CCc1c(-c2ccccc2)n(-c2cc(Br)ccc2C)cc(Br)c1=O [Compound 499] | L (L shows the control value of 50% or less) | H (H shows the control value of more than 50%) | L (L shows the control value of 50% or less)
Cc1ccccc1-n1cc(C)c(=O)c(C)c1-c1c(F)cccc1F [Compound 500] | L (L shows the control value of 50% or less) | H (H shows the control value of more than 50%) | H (H shows the control value of more than 50%)
CCc1c(-c2c(F)cccc2F)n(-c2cc(Cl)ccc2C)cc(Br)c1=O [Compound 501] | L (L shows the control value of 50% or less) | H (H shows the control value of more than 50%) | L (L shows the control value of 50% or less)
CCc1c(-c2ccccc2)n(-c2cccc(C)c2C)cc(Br)c1=O [Compound 502] | L (L shows the control value of 50% or less) | L (L shows the control value of 50% or less) | L (L shows the control value of 50% or less)
CCc1c(-c2ccccc2)n(-c2cccc(C)c2C)cc(C)c1=O [Compound 503] | L (L shows the control value of 50% or less) | L (L shows the control value of 50% or less) | H (H shows the control value of more than 50%)
CCc1c(-c2ccccc2)n(-c2cc(OC)ccc2C)cc(Br)c1=O [Compound 504] | L (L shows the control value of 50% or less) | L (L shows the control value of 50% or less) | H (H shows the control value of more than 50%)
CCc1c(-c2ccccc2)n(-c2cccc(F)c2C)cc(Br)c1=O [Compound 505] | L (L shows the control value of 50% or less) | L (L shows the control value of 50% or less) | H (H shows the control value of more than 50%)
CCc1c(-c2ccccc2)n(-c2cccc(Cl)c2C)cc(Br)c1=O [Compound 506] | L (L shows the control value of 50% or less) | H (H shows the control value of more than 50%) | L (L shows the control value of 50% or less)
CCc1c(-c2c(F)cccc2F)n(-c2ccccc2C)cc(Br)c1=O [Compound 507] | L (L shows the control value of 50% or less) | L (L shows the control value of 50% or less) | L (L shows the control value of 50% or less)
CCc1c(-c2c(F)cccc2F)n(-c2ccccc2C)cc(C)c1=O [Compound 508] | L (L shows the control value of 50% or less) | H (H shows the control value of more than 50%) | H (H shows the control value of more than 50%)
CCc1ccccc1-n1cc(Br)c(=O)c(CC)c1-c1c(F)cccc1F [Compound 509] | L (L shows the control value of 50% or less) | H (H shows the control value of more than 50%) | H (H shows the control value of more than 50%)
CCc1ccccc1-n1cc(C)c(=O)c(CC)c1-c1c(F)cccc1F [Compound 510] | L (L shows the control value of 50% or less) | H (H shows the control value of more than 50%) | H (H shows the control value of more than 50%)
CCc1c(-c2c(F)cccc2F)n(-c2ccccc2Cl)cc(Br)c1=O [Compound 511] | L (L shows the control value of 50% or less) | L (L shows the control value of 50% or less) | H (H shows the control value of more than 50%)
CCc1c(-c2c(F)cccc2F)n(-c2ccccc2Cl)cc(C)c1=O [Compound 512] | L (L shows the control value of 50% or less) | H (H shows the control value of more than 50%) | H (H shows the control value of more than 50%)
